Our source for the binding values is paper PMC3585124.

Amino acid sequences for entries named in this document (tags omitted). A change or cut given only in a name is not applied to a line headed by its entry. Chains listed by the source or under a name are the forms on record and can include a tag or linker. Residues count along the entry.
Purified Nbs1(1–335) (O60934, residues 1-335): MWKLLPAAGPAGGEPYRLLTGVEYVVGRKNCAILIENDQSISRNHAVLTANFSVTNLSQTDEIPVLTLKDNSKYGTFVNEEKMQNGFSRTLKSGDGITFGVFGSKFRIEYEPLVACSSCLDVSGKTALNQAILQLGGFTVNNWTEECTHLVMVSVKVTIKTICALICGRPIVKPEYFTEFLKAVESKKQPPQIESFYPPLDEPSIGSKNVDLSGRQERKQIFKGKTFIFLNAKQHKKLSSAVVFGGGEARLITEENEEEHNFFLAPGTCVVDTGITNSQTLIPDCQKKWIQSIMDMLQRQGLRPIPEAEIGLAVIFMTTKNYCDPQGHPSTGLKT
Flag-Nbs1 336-end (O60934, residues 336-754): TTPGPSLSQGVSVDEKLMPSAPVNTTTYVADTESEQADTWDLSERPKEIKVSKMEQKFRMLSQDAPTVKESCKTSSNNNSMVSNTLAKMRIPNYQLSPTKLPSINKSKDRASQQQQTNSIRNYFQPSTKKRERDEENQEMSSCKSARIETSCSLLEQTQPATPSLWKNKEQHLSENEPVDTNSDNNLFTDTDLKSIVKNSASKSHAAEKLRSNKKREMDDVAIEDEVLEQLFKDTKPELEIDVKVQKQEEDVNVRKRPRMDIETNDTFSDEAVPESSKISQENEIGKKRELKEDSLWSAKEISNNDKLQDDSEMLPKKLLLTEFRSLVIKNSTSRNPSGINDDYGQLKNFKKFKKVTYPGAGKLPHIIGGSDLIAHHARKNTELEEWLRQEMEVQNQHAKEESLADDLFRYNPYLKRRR
Nbs1-(1–335)-K160M-GST (O60934, form named): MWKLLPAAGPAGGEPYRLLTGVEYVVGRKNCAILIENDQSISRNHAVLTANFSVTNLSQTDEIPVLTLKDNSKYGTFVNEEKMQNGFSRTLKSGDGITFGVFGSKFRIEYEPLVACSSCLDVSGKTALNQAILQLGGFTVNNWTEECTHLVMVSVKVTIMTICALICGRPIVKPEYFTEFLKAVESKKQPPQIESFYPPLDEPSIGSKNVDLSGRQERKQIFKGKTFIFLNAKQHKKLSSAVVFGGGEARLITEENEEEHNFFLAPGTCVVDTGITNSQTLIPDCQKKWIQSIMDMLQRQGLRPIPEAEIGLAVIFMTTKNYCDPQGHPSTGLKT
Nbs1-(1–335)-R28A-GST (O60934, form named): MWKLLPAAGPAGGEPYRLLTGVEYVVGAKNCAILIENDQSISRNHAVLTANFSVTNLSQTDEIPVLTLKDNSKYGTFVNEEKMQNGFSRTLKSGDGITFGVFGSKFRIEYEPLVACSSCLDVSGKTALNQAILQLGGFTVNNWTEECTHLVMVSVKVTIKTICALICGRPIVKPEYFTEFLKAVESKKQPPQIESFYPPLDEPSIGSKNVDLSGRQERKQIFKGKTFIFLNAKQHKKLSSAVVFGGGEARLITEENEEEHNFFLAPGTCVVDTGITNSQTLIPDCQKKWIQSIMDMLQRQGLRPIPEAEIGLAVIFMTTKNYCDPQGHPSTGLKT
Nbs1-(1–335)-R28A/K160M-GST (O60934, form named): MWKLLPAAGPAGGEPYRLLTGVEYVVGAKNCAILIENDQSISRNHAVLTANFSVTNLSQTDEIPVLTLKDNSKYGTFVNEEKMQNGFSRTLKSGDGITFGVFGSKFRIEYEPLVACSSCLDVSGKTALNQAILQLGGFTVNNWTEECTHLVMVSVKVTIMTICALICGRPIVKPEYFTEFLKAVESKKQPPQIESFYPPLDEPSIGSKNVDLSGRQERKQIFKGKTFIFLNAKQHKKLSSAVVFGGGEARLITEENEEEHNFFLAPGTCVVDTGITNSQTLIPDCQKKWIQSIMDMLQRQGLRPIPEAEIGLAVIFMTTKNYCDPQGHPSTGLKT

Results are given in words; binding and its absence hold for the method and conditions named. For some of these results: In cells and extracts the contact can be indirect. Some entries that bind do so weakly or less than the wild type. For some of these results: Sequences can lack the tags named with a protein.

The target of one test is Nbs1-(1–335)-GST (human) (UniProt O60934). The test is described as follows: pull-down; GST pull-down from Sf21 insect cells co-infected with baculoviruses for the GST-tagged partner (bait) and the Flag-tagged partner; NETN buffer; immunoblotting. Background: Immunoblotting shows a protein as a band on a membrane.
Test [1] addresses Nbs1-(1–335)-K160M-GST (human) (UniProt O60934). Described as above.
Test [2] addresses Nbs1-(1–335)-R28A-GST (human) (UniProt O60934). The description is as above.
Test [3] concerns the target Nbs1-(1–335)-R28A/K160M-GST (human) (UniProt O60934). The test is described as above.
Another test deals with T1, GST-CtIP 462-end (human) (UniProt Q99708).
T1 sequence: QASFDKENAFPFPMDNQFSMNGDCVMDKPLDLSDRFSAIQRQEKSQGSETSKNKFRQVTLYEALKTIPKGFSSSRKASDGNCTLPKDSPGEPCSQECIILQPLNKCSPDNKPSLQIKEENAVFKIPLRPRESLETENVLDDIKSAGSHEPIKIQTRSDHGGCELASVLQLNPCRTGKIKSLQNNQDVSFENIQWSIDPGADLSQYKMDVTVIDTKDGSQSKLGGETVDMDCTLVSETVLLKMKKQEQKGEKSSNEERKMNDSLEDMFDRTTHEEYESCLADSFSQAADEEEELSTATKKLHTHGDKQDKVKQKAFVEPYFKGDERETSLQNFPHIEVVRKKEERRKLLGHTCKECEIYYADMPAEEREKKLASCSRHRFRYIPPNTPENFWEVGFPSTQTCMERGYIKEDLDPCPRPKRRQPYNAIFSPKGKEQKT
The description is as above.

The target of test [4] is T2, GST-CtIP-12A-CDK (purified) (human) (UniProt Q99708).
T2 sequence: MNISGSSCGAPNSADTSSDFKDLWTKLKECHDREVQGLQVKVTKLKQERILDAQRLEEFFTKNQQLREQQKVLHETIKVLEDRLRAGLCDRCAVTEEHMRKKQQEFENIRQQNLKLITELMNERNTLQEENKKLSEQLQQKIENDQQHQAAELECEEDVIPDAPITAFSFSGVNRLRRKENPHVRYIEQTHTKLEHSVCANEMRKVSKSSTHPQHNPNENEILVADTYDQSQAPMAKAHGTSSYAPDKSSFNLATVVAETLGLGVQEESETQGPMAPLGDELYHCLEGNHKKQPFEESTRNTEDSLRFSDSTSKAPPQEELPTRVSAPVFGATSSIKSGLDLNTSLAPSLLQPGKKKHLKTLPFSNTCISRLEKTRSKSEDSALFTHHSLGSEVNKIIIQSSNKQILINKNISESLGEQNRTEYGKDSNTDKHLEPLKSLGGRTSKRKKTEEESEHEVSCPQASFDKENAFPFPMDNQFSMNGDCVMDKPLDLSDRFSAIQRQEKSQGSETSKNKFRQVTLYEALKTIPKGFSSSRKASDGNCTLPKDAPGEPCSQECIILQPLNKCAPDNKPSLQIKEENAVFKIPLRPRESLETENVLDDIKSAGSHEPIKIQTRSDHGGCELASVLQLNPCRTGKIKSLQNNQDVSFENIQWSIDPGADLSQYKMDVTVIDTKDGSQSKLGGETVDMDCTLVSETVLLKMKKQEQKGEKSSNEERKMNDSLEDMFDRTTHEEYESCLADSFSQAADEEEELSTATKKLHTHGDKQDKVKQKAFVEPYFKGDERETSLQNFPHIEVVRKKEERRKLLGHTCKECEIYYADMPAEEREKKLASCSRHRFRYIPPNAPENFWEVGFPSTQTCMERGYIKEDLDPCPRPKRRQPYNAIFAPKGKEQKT
The test is described as follows: pull-down; purified Nbs1(1–335) or Nbs1(1–335)-RRHK incubated with purified CtIP-WT or CtIP-12A-CDK coupled to glutathione agarose beads; Western blot with anti-His and anti-GST; both purified.

Take “CtIP-(200–600) fragment containing the 5A-CDK mutation (from UniProt Q99708 200-600) (domain or fragment)”: the binding entry with Nbs1-(1–335)-GST (human) is “no binding”.

Regarding “CtIP-(200–600) fragment containing the 7A-CDK mutation (from UniProt Q99708 200-600) (domain or fragment)”, the binding result in the test with Nbs1-(1–335)-GST (human) is recorded as “no binding”.

Consider “CtIP-(200–600) with all CDK sites mutated (7A+S327A) (from UniProt Q99708 200-600) (domain or fragment)”, for which, in the test with Nbs1-(1–335)-GST (human), the binding entry is “no binding”.

With “CtIP-(200–600)-S233A/S245A/S276A (from UniProt Q99708 200-600) (domain or fragment)”, in the test with Nbs1-(1–335)-GST (human), the binding result is “binds”.

Consider “CtIP-(200–600)-S549A/S568A (from UniProt Q99708 200-600) (domain or fragment)”, for which the binding result in the test with Nbs1-(1–335)-GST (human) is given as “binds”.

With “CtIP-(200–600)-T245A/S276A/S347A (from UniProt Q99708 200-600) (domain or fragment)”, the binding entry with Nbs1-(1–335)-GST (human) was “binds”.

For the substance “CtIP-(200–600)-T315A/S347A (from UniProt Q99708 200-600) (domain or fragment)”, in the test with Nbs1-(1–335)-GST (human), the binding entry is given as “binds”.

Take “Flag-CtIP 200–600 fragment (from UniProt Q99708 200-600) (domain or fragment)”: the binding entry in test [1] is given as “binds”; in test [2], “binds”; with Nbs1-(1–335)-GST (human), “binds”; in test [3] it was “no binding”.

On to “Flag-Nbs1 336-end (from UniProt O60934 336-754) (domain or fragment)”, for which the binding entry in the test with GST-CtIP 462-end (human) is “binds”.

For the substance “Purified Nbs1(1–335) (from UniProt O60934 1-335) (domain or fragment)”, in test [4], the binding result is “no binding”.
